{"source": "the BET-seq Pho4 binding data (Le et al. 2018)", "note": "The list shows a part of the results. The energies were worked out here from pooled read counts, against the library average; single values are noisy."}
{"target": "T1, Pho4 (S. cerevisiae) (UniProt P07270)", "T1 sequence": "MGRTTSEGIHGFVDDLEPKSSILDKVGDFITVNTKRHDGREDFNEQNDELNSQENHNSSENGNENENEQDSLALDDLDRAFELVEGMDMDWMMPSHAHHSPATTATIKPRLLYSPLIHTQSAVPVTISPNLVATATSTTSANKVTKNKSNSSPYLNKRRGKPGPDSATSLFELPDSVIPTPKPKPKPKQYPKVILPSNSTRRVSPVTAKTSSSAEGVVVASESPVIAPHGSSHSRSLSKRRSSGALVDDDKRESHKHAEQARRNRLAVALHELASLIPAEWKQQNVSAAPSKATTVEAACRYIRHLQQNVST", "assay": "relative binding free energy (BET-seq); higher = weaker binding", "conditions": "reference: library average", "units": {"relative binding free energy": "kcal/mol"}}
{"sequence": "CCGGGCACGTGGTTTT", "relative binding free energy": -0.07}
{"sequence": "TTGGCCACGTGCGTGG", "relative binding free energy": -0.04}
{"sequence": "TGCTGCACGTGCGAGG", "relative binding free energy": 0.03}
{"sequence": "GGGAACACGTGCAGGT", "relative binding free energy": 0.06}
{"sequence": "GATTTCACGTGTGGCA", "relative binding free energy": 0.53}
{"sequence": "TTGTGCACGTGTGGAA", "relative binding free energy": 0.09}
{"sequence": "TGCGCCACGTGAGGGG", "relative binding free energy": -0.17}
{"sequence": "CTGGGCACGTGGGCTC", "relative binding free energy": -0.15}
{"sequence": "TAATTCACGTGGGATA", "relative binding free energy": 0.24}
{"sequence": "GGGAGCACGTGCGCGT", "relative binding free energy": -0.24}
{"sequence": "TACGGCACGTGTTGTG", "relative binding free energy": -0.14}
{"sequence": "TTGGGCACGTGCCTGG", "relative binding free energy": -0.29}
{"sequence": "GTATTCACGTGTCCGG", "relative binding free energy": 0.27}
{"sequence": "TAGCTCACGTGGCTTG", "relative binding free energy": 0.11}
{"sequence": "GAGTGCACGTGGCGGT", "relative binding free energy": -0.06}
{"sequence": "GTAGGCACGTGAATGC", "relative binding free energy": 0.2}
{"sequence": "TCTTTCACGTGGTGGA", "relative binding free energy": 0.22}
{"sequence": "TCGAGCACGTGATTGT", "relative binding free energy": 0.12}
{"sequence": "AAGGGCACGTGTTGTA", "relative binding free energy": -0.14}
{"sequence": "GATGACACGTGGGAGT", "relative binding free energy": 0.07}
{"sequence": "AATTGCACGTGAAGGG", "relative binding free energy": 0.27}
{"sequence": "TGAGTCACGTGATGCT", "relative binding free energy": 0.28}
{"sequence": "GTTAGCACGTGGGGAT", "relative binding free energy": -0.19}
{"sequence": "ATGGCCACGTGAGGTT", "relative binding free energy": 0.19}
{"sequence": "TTTATCACGTGTCATA", "relative binding free energy": 0.14}
{"sequence": "AAGTTCACGTGTTGCA", "relative binding free energy": 0.2}
{"sequence": "AGAATCACGTGATGGA", "relative binding free energy": 0.37}
{"sequence": "GTGATCACGTGGTATA", "relative binding free energy": -0.05}
{"sequence": "GGTCTCACGTGCTAGT", "relative binding free energy": 0.27}
{"sequence": "CGGGTCACGTGATGGT", "relative binding free energy": 0.1}
{"sequence": "TTGGTCACGTGTAGTC", "relative binding free energy": 0.17}
{"sequence": "TGTGACACGTGGAGAT", "relative binding free energy": -0.09}
{"sequence": "TGTTGCACGTGCGGTT", "relative binding free energy": 0.04}
{"sequence": "ACGGGCACGTGGATTT", "relative binding free energy": -0.02}
{"sequence": "TTTTTCACGTGCATTA", "relative binding free energy": 0.23}
{"sequence": "TATATCACGTGGGCTG", "relative binding free energy": 0.04}
{"sequence": "AGTGTCACGTGTCGGA", "relative binding free energy": 0.14}
{"sequence": "TTCATCACGTGTGCGT", "relative binding free energy": 0.24}
{"sequence": "ATAGGCACGTGTCTTT", "relative binding free energy": -0.14}
{"sequence": "GAGGACACGTGGTATA", "relative binding free energy": 0.1}
{"sequence": "TTTTACACGTGCGGTG", "relative binding free energy": 0.07}
{"sequence": "TTGGGCACGTGGTAGT", "relative binding free energy": -0.11}
{"sequence": "GGTCGCACGTGGGCCT", "relative binding free energy": -0.03}
{"sequence": "GGGTTCACGTGAGTCG", "relative binding free energy": 0.51}
{"sequence": "GATCCCACGTGGGGGG", "relative binding free energy": -0.05}
{"sequence": "TTGGTCACGTGGTGAT", "relative binding free energy": 0.02}
{"sequence": "ACGGGCACGTGAGGTG", "relative binding free energy": 0.01}
{"sequence": "TTAGGCACGTGTCTGT", "relative binding free energy": -0.11}
{"sequence": "AATTGCACGTGGATTA", "relative binding free energy": 0.02}
{"sequence": "GTGCACACGTGAAGGT", "relative binding free energy": 0.31}
{"sequence": "ATTTCCACGTGTAGGT", "relative binding free energy": 0.06}
{"sequence": "GTTTACACGTGAAGTT", "relative binding free energy": 0.38}
{"sequence": "GATCACACGTGGGCGG", "relative binding free energy": 0.09}
{"sequence": "GGGGTCACGTGGAAGT", "relative binding free energy": 0.14}
{"sequence": "GCGTGCACGTGCATGG", "relative binding free energy": -0.05}
{"sequence": "GCAGACACGTGTGGTT", "relative binding free energy": 0.16}
{"sequence": "TAGATCACGTGTTTGT", "relative binding free energy": 0.05}
{"sequence": "TTGCACACGTGAGCGT", "relative binding free energy": 0.28}
{"sequence": "GGGTTCACGTGCATGC", "relative binding free energy": 0.33}
{"sequence": "ATAACCACGTGGTGTA", "relative binding free energy": -0.05}
{"sequence": "GATTACACGTGTGGTA", "relative binding free energy": 0.32}
{"sequence": "AGGGCCACGTGTGGGC", "relative binding free energy": -0.08}
{"sequence": "AGGAACACGTGGGGAG", "relative binding free energy": -0.07}
{"sequence": "GTGCTCACGTGCGGAT", "relative binding free energy": 0.25}
{"sequence": "TCGGGCACGTGGAGGG", "relative binding free energy": -0.15}
{"sequence": "GTGCTCACGTGTGAGG", "relative binding free energy": 0.5}
{"sequence": "ATAAGCACGTGCGTGG", "relative binding free energy": -0.22}
{"sequence": "AAGGGCACGTGCGGAG", "relative binding free energy": -0.11}
{"sequence": "GAGTGCACGTGTGATA", "relative binding free energy": 0.16}
{"sequence": "ACGTGCACGTGCGGAG", "relative binding free energy": 0.08}
{"sequence": "TTGTACACGTGTCAAG", "relative binding free energy": 0.06}
{"sequence": "GGACACACGTGGGTGT", "relative binding free energy": -0.2}
{"sequence": "TGTATCACGTGTGTGC", "relative binding free energy": 0.27}
{"sequence": "ATTAACACGTGCAGTT", "relative binding free energy": 0.03}
{"sequence": "AGATTCACGTGGTAGA", "relative binding free energy": 0.16}
{"sequence": "GATAGCACGTGTAATG", "relative binding free energy": 0}
{"sequence": "GTTTTCACGTGTTCGA", "relative binding free energy": 0.48}
{"sequence": "ATGAACACGTGGTAAG", "relative binding free energy": 0.01}
{"sequence": "GCGGTCACGTGAGTAT", "relative binding free energy": 0.37}
{"sequence": "GAGTTCACGTGTGCTT", "relative binding free energy": 0.19}
{"sequence": "GTGATCACGTGGAATG", "relative binding free energy": 0.29}
{"sequence": "TGGGTCACGTGTCAGA", "relative binding free energy": 0.11}
{"sequence": "GGGGCCACGTGTAGGT", "relative binding free energy": 0.07}
{"sequence": "GAGGTCACGTGGTTGA", "relative binding free energy": 0.18}
{"sequence": "GACGGCACGTGGGTTA", "relative binding free energy": -0.07}
{"sequence": "TGGCGCACGTGGTAGA", "relative binding free energy": -0.14}
{"sequence": "GTTGACACGTGTCTGT", "relative binding free energy": -0.03}
{"sequence": "TCGGTCACGTGGTGCG", "relative binding free energy": 0.13}
{"sequence": "TGTAACACGTGTCTTG", "relative binding free energy": -0.09}
{"sequence": "GTTTACACGTGTGGAA", "relative binding free energy": 0.22}
{"sequence": "GAGTGCACGTGGGGCG", "relative binding free energy": -0.12}
{"sequence": "AGTCGCACGTGGGATT", "relative binding free energy": -0.12}
{"sequence": "ATGCTCACGTGTGGCG", "relative binding free energy": 0.11}
{"sequence": "CGTGGCACGTGTGGAT", "relative binding free energy": -0.03}
{"sequence": "GTGGCCACGTGTCAGG", "relative binding free energy": -0.04}
{"sequence": "AAGTACACGTGTTTAT", "relative binding free energy": 0.09}
{"sequence": "GGAAACACGTGGTTAT", "relative binding free energy": 0.03}
{"sequence": "CATTGCACGTGTTTGT", "relative binding free energy": -0.02}
{"sequence": "CTTTTCACGTGGATAT", "relative binding free energy": 0.16}
{"sequence": "GAGAACACGTGTGGTA", "relative binding free energy": 0.07}
{"sequence": "TAGTTCACGTGGAAGG", "relative binding free energy": 0.32}
{"sequence": "TTGTCCACGTGGGCGT", "relative binding free energy": -0.25}
{"sequence": "GTTGGCACGTGACAAG", "relative binding free energy": -0.02}
{"sequence": "TAAAACACGTGTGGTG", "relative binding free energy": 0.03}
{"sequence": "GGGAGCACGTGGTGTG", "relative binding free energy": -0.25}
{"sequence": "TGTTACACGTGTTTAG", "relative binding free energy": 0.17}
{"sequence": "CTCTTCACGTGGTTGT", "relative binding free energy": 0.23}
{"sequence": "AGGCCCACGTGGTGGT", "relative binding free energy": -0.27}
{"sequence": "TTAATCACGTGGTGAC", "relative binding free energy": 0.17}
{"sequence": "ATTGTCACGTGTTTAT", "relative binding free energy": 0.09}
{"sequence": "AAGTGCACGTGGTATC", "relative binding free energy": 0.08}
{"sequence": "AGAATCACGTGTTTTG", "relative binding free energy": 0.08}
{"sequence": "AGCTACACGTGTGTTT", "relative binding free energy": 0.13}
{"sequence": "TTCAACACGTGTGTCG", "relative binding free energy": 0.18}
{"sequence": "TGTTCCACGTGTGTGT", "relative binding free energy": 0.09}
{"sequence": "CGAAGCACGTGTTGAG", "relative binding free energy": -0.02}
{"sequence": "CTTGTCACGTGTTTGT", "relative binding free energy": 0.05}
{"sequence": "CGTGGCACGTGGGTCT", "relative binding free energy": -0.2}
{"sequence": "GCTGGCACGTGAGTGT", "relative binding free energy": 0.09}
{"sequence": "GAGCTCACGTGCGGGT", "relative binding free energy": 0.2}
{"sequence": "GGGACCACGTGGGATG", "relative binding free energy": -0.09}
{"sequence": "TTTTTCACGTGGATTT", "relative binding free energy": 0.26}
{"sequence": "AAGCGCACGTGGTTGA", "relative binding free energy": -0.07}
{"sequence": "CGAGTCACGTGTGTAA", "relative binding free energy": 0.04}
{"sequence": "TCGGTCACGTGGAGCG", "relative binding free energy": 0.14}
{"sequence": "GTATCCACGTGGTTGG", "relative binding free energy": 0.17}
{"sequence": "TAGATCACGTGAAATG", "relative binding free energy": 0.48}
{"sequence": "TTTTCCACGTGATATT", "relative binding free energy": 0.2}
{"sequence": "TCGGGCACGTGTCCTG", "relative binding free energy": 0.08}
{"sequence": "TCTTGCACGTGTAGTG", "relative binding free energy": 0.13}
{"sequence": "CATGTCACGTGACGGT", "relative binding free energy": 0.13}
{"sequence": "TAGGGCACGTGTAGCT", "relative binding free energy": -0.19}
{"sequence": "AGGATCACGTGGTAAT", "relative binding free energy": 0.09}
{"sequence": "TCGTTCACGTGTGGGG", "relative binding free energy": 0.33}
{"sequence": "TAGGGCACGTGTAGGA", "relative binding free energy": -0.1}
{"sequence": "TCGGGCACGTGAATGT", "relative binding free energy": 0.17}
{"sequence": "TTTCGCACGTGATTGG", "relative binding free energy": 0.25}
{"sequence": "GTGTCCACGTGTAGTA", "relative binding free energy": 0.33}
{"sequence": "TAAGGCACGTGAGCTT", "relative binding free energy": 0.09}
{"sequence": "TGGGACACGTGAAGGG", "relative binding free energy": 0.27}
{"sequence": "ATCAACACGTGTTTGG", "relative binding free energy": -0.02}
{"sequence": "TCGTTCACGTGTGCTT", "relative binding free energy": 0.28}
{"sequence": "CTTGTCACGTGGATAT", "relative binding free energy": 0.18}
{"sequence": "TGTTTCACGTGACAGT", "relative binding free energy": 0.19}
{"sequence": "TGGTTCACGTGGGGAG", "relative binding free energy": 0.23}
{"sequence": "AGGGTCACGTGATTCG", "relative binding free energy": 0.3}
